Laboratory results: PubChem BioAssay AID1631 (National Center for Advancing Translational Sciences (NCATS), 2009)
The whole screen tested about 260,000 compounds, of which about 890 (0.34%) were called active. This list was built around the results that the source calls inconclusive (neither active nor inactive); the mix of calls is not that of the screen. The call rests on the fitted dose curve; in most records, active means well fitted activation curve with a large enough effect; inconclusive means small, poorly fitted or top-dose-only effect; inactive means no such curve, though single readings can be large or run the other way. Potencies beside an inconclusive call are fits to weak or partial responses and may not hold up.

target: Pyruvate kinase PKM (Homo sapiens) (UniProt P14618); experiment: qHTS Assay for Activators of Human Muscle isoform 2 Pyruvate Kinase; conditions: purified PKM2, Kinase-Glo ATP luminescence; Potency: activation; activation: at 57.5 µM (top of the series), 0% is enzyme alone, no compound; further: nearly all actives have a fitted effect of over 55% in size
Chain of UniProt P14618 (P14618 whole entry, looked up, canonical isoform): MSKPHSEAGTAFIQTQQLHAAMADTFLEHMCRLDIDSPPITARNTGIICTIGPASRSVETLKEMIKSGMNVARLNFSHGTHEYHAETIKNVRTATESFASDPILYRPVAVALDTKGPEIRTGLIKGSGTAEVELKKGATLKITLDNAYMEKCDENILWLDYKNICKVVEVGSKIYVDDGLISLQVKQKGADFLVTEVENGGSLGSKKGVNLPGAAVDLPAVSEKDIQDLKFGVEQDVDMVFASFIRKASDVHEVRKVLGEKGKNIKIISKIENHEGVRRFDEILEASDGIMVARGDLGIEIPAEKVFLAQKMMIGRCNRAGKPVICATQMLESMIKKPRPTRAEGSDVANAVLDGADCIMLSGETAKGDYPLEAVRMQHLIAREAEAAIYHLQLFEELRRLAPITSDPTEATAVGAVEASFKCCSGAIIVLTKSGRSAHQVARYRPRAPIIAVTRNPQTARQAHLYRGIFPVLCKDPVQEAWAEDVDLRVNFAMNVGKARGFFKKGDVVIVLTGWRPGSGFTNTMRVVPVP
In short: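 Kinase-Glo luminescence reports ATP generated from ADP (0.1 mM) and PEP (0.5 mM) by purified hPK-M2 after 1 h at room temperature, pH 7.2 imidazole buffer; intermediate enzyme activity allows detecting inhibitors and activators.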
On the % scale 0 is the no-effect control and ±100 the full control effect; potency means the concentration at half of the fitted maximal effect; tags describe the fitted curve by direction and shape.

Potency, active:
Cc1ccc(S(=O)(=O)N2CCN(C(=O)Cc3ccc4c(c3)OCCO4)CC2)cc1C 3.16 µM
NC(=S)c1ccc(C(N)=S)o1 15.8 µM
COCCCNC(=S)N1CCN(S(=O)(=O)c2ccc(OC)cc2)CC1 0.891 µM
COc1cc(/C=C2\SC(=O)N(c3cccc(Cl)c3)C2=O)cc([N+](=O)[O-])c1O 7.94 µM
CCc1sc(C(C2C(=O)CC(C)(C)CC2=O)C2C(=O)CC(C)(C)CC2=O)cc1[N+](=O)[O-] 22.4 µM
CCOc1ccc(S(=O)(=O)N2CCN(C(=S)NCc3ccco3)CC2)cc1 14.1 µM

Potency, inconclusive:
Cc1ccc(C(=O)O)cc1-c1ccc(/C=C2\SC(=O)N(CC(=O)Nc3ccccc3)C2=O)o1 39.8 µM [rising, single point]
COc1ccc(/C(O)=C2/C(=O)C(=O)N(Cc3ccco3)C2c2cccs2)cc1 (stereo unspecified) 25.1 µM [rising, single point]
Cn1c(NCc2ccco2)nc2c1c(=O)n(Cc1ccc(Br)cc1)c(=O)n2C 14.1 µM [rising, partial curve]
Cc1cc(S(=O)(=O)N2CCCC2)ccc1OCC(=O)NCc1ccco1 39.8 µM [rising, single point]
CC(=O)Nc1cccc(C(=O)/C=C/c2ccco2)c1 25.1 µM [rising, single point]
C=CCN1C(=O)C(CC(=O)NCC)SC1=Nc1ccc(S(N)(=O)=O)cc1 (stereo unspecified) 25.1 µM [rising, single point]
COc1cc(C(=O)OCC(=O)Nc2cc(C)on2)c([N+](=O)[O-])cc1OC 39.8 µM [rising, single point]
COc1ccc(NC(=O)c2[nH]c(C)c(C(C)=O)c2C)cc1 25.1 µM [rising, partial curve]
COC(=O)Nc1nc(-c2ccc(F)cc2)c(C)s1 39.8 µM [rising, single point]
CCOC(=O)C1(Cc2ccc(OC)cc2)CCN(C(=O)c2cncs2)CC1 7.08 µM [rising, single point]
O=C(CCCl)N(Cc1nc2ccccc2c(=O)[nH]1)Cc1cccs1 14.1 µM [rising, partial curve]
O=C(/C=C/c1ccc2ccccc2n1)N1CCN(S(=O)(=O)c2ccc(F)cc2)CC1 35.5 µM [rising, single point]
Cc1scc(C(=O)NCc2ccco2)c1-c1ccccc1 39.8 µM [rising, single point]
COc1cccc(CC2(CO)CCCN(C(=O)c3cc[n+]([O-])cc3)C2)c1 (stereo unspecified) 28.2 µM [rising, single point]
O=C(CCC1CCCN(C(=O)c2ccco2)C1)NCc1ccccc1F (stereo unspecified) 31.6 µM [rising, single point]
CC(=O)N(C1CC(C)C(C#N)(C#N)C1(C#N)C#N)N(C)C (stereo unspecified) 15.8 µM [rising, partial curve]
CC(=O)Nc1ccc(C(=O)OCc2ccccc2Br)cc1 7.08 µM [rising, single point]
N#CCn1cnc2sc(-c3ccccc3)cc2c1=O 39.8 µM [rising, single point]
CNc1sc(C(=O)c2cccs2)c(N)c1-c1nc2ccccc2s1 12.6 µM [rising, partial curve]
CCN(CC)S(=O)(=O)c1ccc(OC)c(NC(=O)c2cc(C)on2)c1 39.8 µM [rising, single point]
Cc1c(C(=O)OCc2ccccc2)nnn1-c1nonc1N 20 µM [rising, single point]
Cc1ccc(S(=O)(=O)c2c(N)n(Cc3ccco3)c3nc4ccccc4nc23)cc1C 25.1 µM [rising, single point]
CC1CCN(S(=O)(=O)c2ccc(NC(=O)CSc3ncccc3C(=O)O)cc2)CC1 31.6 µM [rising, single point]
Cc1ccc(C)c2[nH]c(=O)c(CN(CCN3CCCC3)C(=O)Nc3cccc(Cl)c3)cc12 14.1 µM [rising, partial curve, poor fit]
O=S(=O)(/N=C(/Nc1ccc(Cl)cc1Cl)c1ccccc1)c1cccs1 39.8 µM [rising, single point]
C/C(=N\NC(=O)CSCc1ccccc1Cl)c1cc(O)ccc1O 3.98 µM [rising, partial curve]
COC(=O)c1cc2c(N)c(C(=O)c3ccc(Cl)cc3)sc2nc1C(OC)OC 5.62 µM [rising, single point]
COc1cc(S(=O)(=O)NC2CCCCC2)ccc1Cl 0.1 µM [rising, full curve, poor fit]
Cc1cc(NC(=O)c2ccc(C#N)cc2)n(-c2ccccn2)n1 7.08 µM [rising, single point]
COc1cc(C(=O)Nc2cc(-c3ccccc3)[nH]n2)cc(OC)c1OC 28.2 µM [rising, single point]
O=C(CCN1C(=O)/C(=C/c2cccs2)SC1=S)NC1=NCCS1 39.8 µM [rising, single point]
Cc1ccc(-c2nnn(CC(=O)N(c3ccccc3)C(C(=O)NC3CCCC3)c3ccco3)n2)o1 (stereo unspecified) 0.631 µM [rising, single point]
CC(=O)CCc1oc2ccc(C)cc2c1-c1ccc(C)o1 31.6 µM [rising, single point]
Cc1ccc(NC(=O)Cn2c(CCC(=O)O)ccc2-c2cccs2)cc1Cl 31.6 µM [rising, single point]
CC(=O)N1CC=C2C(C#N)=C(N)C(C#N)(C#N)C(CCc3ccccc3)C2C1 (stereo unspecified) 39.8 µM [rising, single point]
Cc1nc(COC(=O)c2cc(O)c3ccccc3c2O)cs1 14.1 µM [rising, partial curve]
Cc1ccc(NC(=O)CSc2nnc(C)c(=O)n2N)cc1Cl 28.2 µM [rising, single point]
C=CCNC(=O)c1ccc2nccnc2c1 0.355 µM [rising, full curve]
O=C(c1ccco1)N1CCN(C(=O)c2cc(-c3ccccc3)nc3ccccc23)CC1 28.2 µM [rising, single point]
Cc1cccc(N(C)S(=O)(=O)c2ccc3c(c2)CCC(=O)N3)c1 14.1 µM [rising, partial curve]
COc1ccc(CNc2nc3c(c(=O)n(Cc4ccc(F)cc4)c(=O)n3C)n2C)cc1 22.4 µM [rising, partial curve]
Cc1cc(N2CCN(S(=O)(=O)c3ccccc3)CC2)c2ccccc2n1 25.1 µM [rising, single point]
O=c1[nH]c2cc3c(cc2cc1CN(Cc1cccnc1)Cc1nnnn1Cc1ccco1)OCCO3 7.94 µM [rising, partial curve]
Cc1ccc(CCC(=O)Nc2ncc(Cc3cccc(Cl)c3Cl)s2)o1 17.8 µM [rising, partial curve]

activation, inactive:
COCCN1C(=O)Cc2c1nc(N)c1c(N)nc(N3CCN(c4ccc(F)cc4)CC3)c(C#N)c21 -1.2%
COCc1cc(C)nc(N2CCN(Cc3ccccc3)CC2)c1C#N -19.4%
CCN1C(=O)/C(=C\c2cccs2)C(C(=O)OC)=C1C -5.78%
O=C(CNc1cccc2ccccc12)N/N=C/c1ccc([N+](=O)[O-])o1 2.56%
CC(=C/c1ccccc1)/C=N/Nc1nc(N2CCCCC2)nc(N2CCCCC2)n1 3.4%
CC1CCN(c2ncnc3ccccc23)CC1 -1.84%
CCCCc1ccc(-c2ccc(Br)cc2)nc1 -4.93%
COc1ccc(N(CN2C(=O)C3CCCCC3C2=O)C(=O)c2ccco2)cc1 (stereo unspecified) -5.77%
O=C(N/N=C(\Cc1ncc[nH]1)c1ccccc1)c1ccccc1 10.3%
COc1cccc(Nc2nc(CN3CCOCC3)nc3sc4c(c23)CCCC4)c1 -1.01%
CCOc1cccc(/C=N/NC(=O)c2cc(-c3cccn3C)n[nH]2)c1O -2.32%
CCOC(=O)c1ccccc1NC(=S)N1CCC(C)CC1 -0.611%
COc1cccc(OC)c1OC(=O)/C=C/c1ccc(C)o1 0.961%
COc1cc(/C=N/N2C(=O)CSC2=S)cc(Br)c1O -4.43%
CC[n+]1ccccc1/C=C/Nc1ccccc1 1.1%
CC(NC(=O)c1ccccc1Br)c1nnc(SCC(=O)NC2CCCCC2)n1C (stereo unspecified) -1.97%
Cn1c(-c2ccc3c(c2)OCO3)cnc1NC(=O)CCC(=O)NCCc1ccccc1 -7.94%
O=C(CSc1nnc(CNc2ccc(F)cc2)o1)N1CCCc2ccccc21 1.68%
COCc1cc(S(=O)c2ccc(Cl)cc2)nc(C)n1 (stereo unspecified) 3.35%
CCOCCCN(C(=O)c1snc(C(N)=O)c1N)C(C(=O)NCCC(C)C)c1ccc(F)cc1 (stereo unspecified) 3.9%
CCNc1nc(Oc2c(Cl)cccc2Cl)cc(C(F)(F)F)n1 4.38%
COC(=O)c1ccc(CN(C(C)=O)c2ccccc2)o1 3.76%
COc1ccc(NC(=O)CCC(=O)Nc2cc(OC)c(NC(=O)c3cccs3)cc2OC)cc1 0.275%
COc1ccc2c(c1)sc(=N)n2C 11.6%
CCn1cc(Br)c(C(=O)NC(C)c2ccccc2)n1 (stereo unspecified) -2.64%
COc1ccccc1C(=O)Nc1ccc2c(c1)nc(CCNC(C)=O)n2C 0.0223%
